# Laboratory results as given in publication PMC6919601, “Identification of Plasmodium dipeptidyl aminopeptidase allosteric inhibitors by high throughput screening” (PLoS ONE, 2019).
# The campaign covered roughly 110,000 compounds. About 230 (0.21%) showed an effect of 50% or more. This is one part of the list.
# Target: DPAP1 (Plasmodium falciparum, UniProt Q8IIJ9)
# Experiment: primary screen, percent inhibition; read by cleavage of a fluorogenic dipeptide substrate; higher = more effect of the substance
# Design: species or system P. falciparum D10 trophozoite lysates; single well
# 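Further: 30 min substrate incubation versus DMSO and 10 µM JCP410 controls.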
# Sequence of DPAP1 (Q8IIJ9 whole entry, looked up): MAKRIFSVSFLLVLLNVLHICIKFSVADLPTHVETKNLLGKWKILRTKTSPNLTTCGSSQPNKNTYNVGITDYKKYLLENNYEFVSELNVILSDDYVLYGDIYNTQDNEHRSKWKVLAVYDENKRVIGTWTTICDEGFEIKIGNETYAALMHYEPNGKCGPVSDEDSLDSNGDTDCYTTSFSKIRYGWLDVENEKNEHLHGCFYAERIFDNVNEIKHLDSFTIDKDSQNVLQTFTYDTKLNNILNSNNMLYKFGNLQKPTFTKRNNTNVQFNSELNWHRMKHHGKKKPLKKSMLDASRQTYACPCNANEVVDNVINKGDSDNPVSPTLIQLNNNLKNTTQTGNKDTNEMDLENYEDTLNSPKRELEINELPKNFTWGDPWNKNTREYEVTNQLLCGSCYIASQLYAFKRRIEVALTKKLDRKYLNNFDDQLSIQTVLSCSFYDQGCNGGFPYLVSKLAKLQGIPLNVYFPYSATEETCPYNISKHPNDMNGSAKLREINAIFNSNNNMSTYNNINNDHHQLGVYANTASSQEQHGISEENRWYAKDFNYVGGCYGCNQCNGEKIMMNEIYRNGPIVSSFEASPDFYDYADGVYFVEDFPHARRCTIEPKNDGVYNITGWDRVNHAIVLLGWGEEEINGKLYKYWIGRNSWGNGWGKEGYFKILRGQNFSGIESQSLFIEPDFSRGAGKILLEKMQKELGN
row,SMILES,% Inhibition @ 10 uM
1,N#CC1(NC(=O)[C@H](Cc2c(F)cccc2F)NC(=O)c2ccc(-c3ccccc3Cl)c(Cl)c2)CCOCC1,-5.2%
2,CC(=O)Nc1nnc(CCS(=O)(=O)c2ccc(Cl)cc2)s1,2.92%
3,COCCCNc1nc2c(c(=O)n(Cc3ccc(OC)cc3)c(=O)n2C)n1C,-3.27%
4,COc1ccccc1-c1cc(C(F)(F)F)nc(N2CCN(Cc3ccccc3)CC2)n1,2.59%
5,O=C(CC1Sc2ccccc2NC1=O)Nc1ccc(Cl)c(C(F)(F)F)c1 (centres unmarked),2.47%
6,CCCS(=O)(=O)c1nc(S(=O)(=O)c2ccc(C)cc2)c(NCCN2CCOCC2)s1,1.15%
7,CC(CCN1CCCN(C)CC1)c1ccccc1 (centres unmarked),2.7%
8,Cc1cc2cc(CNC(=S)NCCc3ccccc3)ccc2[nH]1,-0.138%
9,COc1cc(C(=O)N2CCN(C34CC5CC(CC(C5)C3)C4)CC2)cc(OC)c1OC,-5.48%
10,COc1ccccc1-c1nc2c3c(C)c(C)oc3ncn2n1,-1.28%
11,Cc1onc(-c2ccccc2Cl)c1C(=O)N(Cc1ccccc1)C(C)C,-5.52%
12,CC12CN(C(=O)c3ccccc3Cl)CC(C)(CN(C(=O)c3ccccc3Cl)C1)C2=O,1.75%
13,CCOC(=O)NC(C)(C)COC(=O)NC,0.058%
14,Cc1cc(C)nc(SCC(=O)Nc2ncc(Cc3ccc(F)cc3)s2)n1,3.81%
15,COc1cc2c(cc1OC)C(c1ccccc1C(F)(F)F)N(C)CC2 (centres unmarked),4.55%
16,Fc1c(F)c(F)c2c(cnn2-c2ccccc2)c1F,-2.19%
17,Cc1c(C(c2cc(Cl)ccc2O)c2c(C)n(C)n(-c3ccccc3)c2=O)c(=O)n(-c2ccccc2)n1C,7.99%
18,CCCc1[nH]nc2c1C(c1cc(OC)c(OC)c(OC)c1)C(C#N)=C(N)O2 (centres unmarked),-0.661%
19,COCCCN1C(=O)c2c(c3n(c2-c2ccccc2)Cc2ccccc2-3)C1=O,-1.03%
20,Cc1c(Cl)c(C(F)(F)F)nn1CC(=O)N1CCc2ccccc21,2.51%
21,Cc1ccc(SCC(=O)NC2CCS(=O)(=O)C2)cc1 (centres unmarked),3.81%
22,Cn1c(=O)c2ncn(CC(=O)Nc3ccc(N4CCN(Cc5ccccc5)CC4)cc3)c2n(C)c1=O,-7.09%

row,SMILES,% Inhibition @ 10 uM
1,CSc1ccccc1NC(=O)C1CCN(S(C)(=O)=O)CC1,-1.84%
2,COc1cc2c(C(=O)NCCC(C)C)cn(CC(C)C)c(=O)c2cc1OC,4.33%
3,O=C(CSc1nnc(-c2cccnc2)n1-c1ccccc1)N1CCOCC1,2.12%
4,COc1ccc(-c2nc3scc(CCNC(=O)c4cccc(C(F)(F)F)c4)n3n2)cc1,-1.74%
5,CC(C)(C)OC(=O)Nc1c(F)ccc2c(-c3ccccc3)noc12,0.777%
6,COC(=O)c1c(NC(=O)c2cc(C)oc2C)sc2c1-c1ccccc1CC2,5.32%
7,Cc1ccc(NC(=O)c2ccccc2C(=O)O)cc1Cl,-0.185%
8,O=C(Nc1nsc(-c2ccccc2)n1)c1ccc2ncsc2c1,-6.79%
9,CCN1CCC(NCc2cccc(F)c2)CC1,-7.18%
10,CCCCn1ccc(=O)c2c(C(F)(F)F)nccc21,3.34%
11,CCN1CCN(Cc2nc3c(c(=O)n(C)c(=O)n3C)n2CCCO)CC1,-1.43%
12,Cc1ccc(S(=O)(=O)Nc2ccc(S(=O)(=O)c3ccc(N)cc3)cc2)cc1,0.661%
13,O=C(O)Cc1ccccc1Sc1ccccc1Cl,-1.91%
14,O=C(CCc1nc(-c2ccccc2F)no1)NCCCN1CCCC1,1.86%
15,CN1C(=C2C(=O)NC(=S)NC2=O)Sc2ccccc21,2.16%
16,Cc1ccc2c(c1)-c1onc(C(=O)NCCCN3CC(C)CC(C)C3)c1CO2 (centres unmarked),1.91%
17,Cc1ccc(Cl)cc1NC(=O)CN1C(=O)S/C(=C/c2ccc3c(c2)n(C)c(=O)n3C)C1=O,4.69%
18,OC1CSc2nc3ccccc3n2C1 (centres unmarked),7.62%
19,CCC(C)c1ccc(NC(=O)c2cccnc2)cc1 (centres unmarked),-0.856%
20,COc1cc(C2c3cc4c(cc3OC3(O)CCCC23)OCO4)cc(OC)c1OC (centres unmarked),5.94%
21,Cc1ccc(OCC(=O)NC2CCCCC2)c(Br)c1,-2.3%
22,O=C(c1ccc(Br)cc1)N1CCN(c2ncccn2)CC1,1.57%

row,SMILES,% Inhibition @ 10 uM
1,Cc1cc(C)cc(NC(=O)CSc2ccccc2)c1,3.05%
2,Cc1nc2ncnn2c(C)c1CCC(=O)NC(C)c1cccs1 (centres unmarked),-6.03%
3,COc1cccc(C2=NS(=O)(=O)N(C)C(C(=O)N(C)C3CCCCC3)=C2)c1,8.44%
4,CCn1c(NCc2cccc(OC)c2OC)nc2ccccc21,3.24%
5,CCCCN1C(=O)CN(C2CCCCC2)C(=O)C1c1ccc(OCCC)c(OC)c1 (centres unmarked),5.99%
6,Cc1cccc(-c2nc(CS(=O)CC(=O)NCc3ccccc3)c(C)o2)c1 (centres unmarked),2.37%
7,O=C1CC(c2ccc(Cl)c(Cl)c2)c2cc3c(cc2N1)OCO3 (centres unmarked),2.49%
8,Cc1ccc(C(=O)N(Cc2cccs2)C2CCS(=O)(=O)C2)cc1 (centres unmarked),3.29%
9,NC(=O)c1c(NC(=O)CCc2ccccc2)sc2c1CCCC2,-2.8%
10,C=CCn1c(-c2ccc(OC)cc2)cs/c1=N\c1ccc(NC(C)=O)cc1,0.00477%
11,N#Cc1c(O)nc(S)nc1-c1cccc(Br)c1,-1.75%
12,O=C(c1sc2cc(F)ccc2c1Cl)N1CCOCC1,4.17%
13,COc1cccc2sc(N(CCCN(C)C)C(=O)c3ccccc3Cl)nc12,2.5%
14,COc1ccc(-n2c(-c3ccccc3)c(C#N)c(O)c(Cc3ccccc3)c2=O)cc1,2.32%
15,Cc1ccc(C(=O)/N=C(\N)Nc2nc3ccccc3s2)cc1,-1.41%
16,CN1C(=O)C(=Cc2cc(Cl)cc(Cl)c2O)C(=O)N(C)C1=O,-2.44%
17,O=C(Nc1cccc(C(F)(F)F)c1)C(O)c1ccccc1 (centres unmarked),4.04%
18,Cc1nc2c(c(C)nn2C(C)(C)C)c(C)c1CCC(=O)NCc1ccccc1Cl,-0.72%
19,Brc1ccc2nc(Nc3ccccn3)nc(-c3ccccc3)c2c1,1.24%
20,Cc1ccccc1S(=O)Cc1ccc(C(=O)NCCN2CCOCC2)o1 (centres unmarked),3.88%
21,Cc1onc(-c2c(Cl)cccc2Cl)c1C(=O)Nc1ccc(OCc2ccccc2)cc1,2.78%
